Patent publication US10947285B2, “Compounds, compositions and uses thereof for improvement of bone disorders” (Amolyt Pharma, priority 2017, dated 2021)
Part of at least one peptide drawing is inferred or uncertain, most often the ends. Some compounds share one wording; it may come from a single statement. No end group written: not given here.

Tested on: MC-3T3 E1 clone 4 (CL4) osteoblast cells
Assay: in vitro osteoblast differentiation bioassay (stimulation of osteocalcin protein synthesis)
Assay type: cell-based
Conditions: for Fold increase vs DM ± SD: Table 9, osteocalcin, peptide 1 μmol/L, 14-15 day interval; for biological activity in the in vitro osteoblast differentiation assay (in words): statements of the text on Tables 8-18
Experimental: Each peptide was tested in a biologic assay measuring its ability to stimulate differentiation of osteoblast cells over a 18-21 day interval (Table 8) or a 14-15 day interval (Table 9) as assessed by the stimulation of osteocalcin protein synthesis. MC-3T3 E1 clone 4 (CL4) osteoblast cells were obtained from ATCC (Manassas, Va., USA). Cells were cultured in α-MEM containing 10% fetal bovine serum (FBS; Thermo Fisher Scientific, Pittsburgh, Pa., USA). After confluency, culture medium was changed to differentiation medium (DM), which contained 10% FBS plus 50 μg/mL ascorbic acid and 4 mM β-glycerol phosphate, with or without a test peptide (1 μg/mL in Table 8 or 1 μmol/L in Table 9). Fresh DM, with or without test peptide, was applied every 72 hours. The cell monolayers were lysed in a modified radioimmunoprecipitation assay (RIPA) buffer. Total cellular protein in the lysates was determined using BCA (Thermo Fisher Scientific, Rockford, Ill., USA). Cell proteins are separated on SDS-PAGE gel and transferred on PVDF membrane for analysis. Osteocalcin detection was performed using anti-osteocalcin antibody at 1:200 dilution (Santa Cruz Biotechnology, Inc, Santa Cruz, Calif., USA) or at 1:3000 dilution (NPT Inc., Chapel Hill, N.C., USA) and visualized using enhanced chemiluminescence (Thermo Fisher Scientific, Rockford, Ill., USA).
The peptide was tested at different concentrations in a biologic assay measuring its ability to stimulate differentiation of osteoblast cells over a 18 day interval as assessed by the stimulation of osteocalcin protein synthesis. MC-3T3 E1 clone 4 (CL4) osteoblast cells were obtained from ATCC (Manassas, Va., USA). Cells were cultured in α-MEM containing 10% fetal bovine serum (FBS; Thermo Fisher Scientific, Pittsburgh, Pa., USA). After confluency, culture medium was changed to differentiation medium (DM), which contained 10% FBS plus 50 μg/mL ascorbic acid and 4 mM β-glycerol phosphate, with or without an ascending dose of the peptide from 0.1 μg/mL to 4 μg/mL. Fresh DM, with or without the peptide, was applied every 72 hours. The cell monolayers were lysed in a modified radioimmunoprecipitation assay (RIPA) buffer. Total cellular protein in the lysates was determined using BCA (Thermo Fisher Scientific, Rockford, Ill., USA). Cell proteins are separated on SDS-PAGE gel and transferred on PVDF membrane for analysis. Osteocalcin detection was performed using anti-osteocalcin antibody at 1:200 dilution (Santa Cruz Biotechnology, Inc, Santa Cruz, Calif., USA) and visualized using enhanced chemiluminescence (Thermo Fisher Scientific, Rockford, Ill., USA).
Each peptide was tested in a biologic assay measuring its ability to stimulate differentiation of osteoblast cells over a 15 day interval as assessed by the stimulation of osteocalcin protein synthesis. MC-3T3 E1 clone 4 (CL4) osteoblast cells were obtained from ATCC (Manassas, Va., USA). Cells were cultured in α-MEM containing 10% fetal bovine serum (FBS; Thermo Fisher Scientific, Pittsburgh, Pa., USA). After confluency, culture medium was changed to differentiation medium (DM), which contained 10% FBS plus 50 μg/mL ascorbic acid and 4 mM β-glycerol phosphate, with or without a test peptide (1 μg/mL). Fresh DM, with or without test peptide, was applied every 72 hours for 15 days. The cell monolayers were lysed in a modified radioimmunoprecipitation assay (RIPA) buffer. Total cellular protein in the lysates was determined using BCA (Thermo Fisher Scientific, Rockford, Ill., USA). Cell proteins are separated on SDS-PAGE gel and transferred on PVDF membrane for analysis. Osteocalcin detection was performed using anti-osteocalcin antibody at 1:200 dilution (Santa Cruz Biotechnology, Inc, Santa Cruz, Calif., USA) and visualized using enhanced chemiluminescence (Thermo Fisher Scientific, Rockford, Ill., USA). […]

[1] = Table 15, 12 day interval, test peptide 1 μmon
[2] = Table 12, 12 day interval, test peptide 1 μmon
[3] = Table 14, 15 day interval, test peptide 1 μmon
[4] = Table 20, dose 0.25 μM, 18 day interval
[5] = Table 20, dose 0.5 μM, 18 day interval
[6] = Table 20, dose 1.0 μM, 18 day interval
[7] = Table 16, 12 day interval, test peptide 1 μmon
[8] = Table 21, dose 0.25 μM, 18 day interval
[9] = Table 21, dose 0.5 μM, 18 day interval
[10] = Table 21, dose 1.0 μM, 18 day interval

## GLEEPK [SEQ ID NO: 14, GLEEPK]
  Fold increase vs DM ± SD: 1.83 ± 0.53 fold
  biological activity in the in vitro osteoblast differentiation assay (in words): shortest active fragment

## GLEEPKK [SEQ ID NO: 12, GLEEPKK]
  Fold increase vs DM ± SD: 2.03 ± 0.68 fold

## HHLGLEEPKK [SEQ ID NO: 16, HHLGLEEPKK]
  Fold increase vs DM ± SD: 3.28 ± 0.36 fold

## HLGIEEPKK [compound 92]
[1]
  Fold increase vs DM ± SE: 2.70 ± 1.43 fold

## HLGLEEDKK [compound 35]
[2]
  Fold increase vs SEQ ID NO: 10 ± SE: 1.26 fold

## HLGLEEFKK [compound 32]
[2]
  Fold increase vs SEQ ID NO: 10 ± SE: 0.58 fold

## HLGLEELKK [compound 33]
[2]
  Fold increase vs SEQ ID NO: 10 ± SE: 1.66 fold

## HLGLEEPDK [compound 39]
[2]
  Fold increase vs SEQ ID NO: 10 ± SE: 1.31 ± 0.08 fold

## HLGLEEPFK [compound 36]
[2]
  Fold increase vs SEQ ID NO: 10 ± SE: 1.23 ± 0.13 fold

## HLGLEEPFN [compound 108]
[3]
  Fold increase vs DM ± SE: 7.14 ± 2.20 fold
[4]
  Fold increase vs DM ± SE: 3.7 ± 0.47 fold
[5]
  Fold increase vs DM ± SE: 4.80 ± 1.12 fold
[6]
  Fold increase vs DM ± SE: 6.20 ± 1.64 fold

## HLGLEEPFV [compound 106]
[3]
  Fold increase vs DM ± SE: 6.98 ± 1.3 fold

## HLGLEEPH [compound 113]
[7]
  Fold increase vs DM ± SE: 8.90 ± 1.31 fold
[8]
  Fold increase vs DM ± SE: 2.99 ± 0.53 fold
[9]
  Fold increase vs DM ± SE: 3.83 ± 1.64 fold
[10]
  Fold increase vs DM ± SE: 4.67 ± 0.46 fold

## HLGLEEPKD [compound 44]
[2]
  Fold increase vs SEQ ID NO: 10 ± SE: 2.60 ± 0.18 fold

## HLGLEEPKF [compound 40]
[2]
  Fold increase vs SEQ ID NO: 10 ± SE: 2.33 ± 0.03 fold

## HLGLEEPKI [compound 41]
[2]
  Fold increase vs SEQ ID NO: 10 ± SE: 2.60 ± 0.56 fold

## HLGLEEPKK [SEQ ID NO: 10, HLGLEEPKK]
  Fold increase vs DM ± SD: 2.51 ± 0.42 fold
  biological activity in the in vitro osteoblast differentiation assay (in words): biologically active
Several doses, 18 day interval
  dose dependence of osteoblast differentiation: improved osteoblast differentiation in a dose-dependent fashion

## HLGLEEPKK [compound 10]
Table 11, Ala-monosubstitutions, 1 μg/mL, 15 day interval
  Fold increase vs SEQ ID NO: 10 ± SE: 1 fold
[2]
  Fold increase vs SEQ ID NO: 10 ± SE: 1 fold
[3]
  Fold increase vs DM ± SE: 2.90 ± 0.86 fold
[1]
  Fold increase vs DM ± SE: 3.19 ± 1.00 fold
[7]
  Fold increase vs DM ± SE: 2.90 ± 0.86 fold
Table 19, dose 1.0 μM, 18 day interval
  Fold increase vs DM ± SE: 2.65 ± 0.49 fold
[4]
  Fold increase vs DM ± SE: 1.24 ± 0.11 fold
[5]
  Fold increase vs DM ± SE: 2.43 ± 0.49 fold
[6]
  Fold increase vs DM ± SE: 3.32 ± 0.55 fold
[8]
  Fold increase vs DM ± SE: 1.23 ± 0.16 fold
[9]
  Fold increase vs DM ± SE: 2.34 ± 0.45 fold
[10]
  Fold increase vs DM ± SE: 3.34 ± 0.45 fold

## HLGLEEPKKLR [SEQ ID NO: 3, HLGLEEPKKLR]
  biological activity in the in vitro osteoblast differentiation assay (in words): some preserved biological activity

## HLGLEEPKP [compound 42]
[2]
  Fold increase vs SEQ ID NO: 10 ± SE: 2.67 ± 0.39 fold

## HLGLEEPKS [compound 43]
[2]
  Fold increase vs SEQ ID NO: 10 ± SE: 2.83 ± 0.09 fold

## HLGLEEPLM [compound 102]
[3]
  Fold increase vs DM ± SE: 4.23 ± 0.93 fold

## HLGLEEPLN [compound 104]
[3]
  Fold increase vs DM ± SE: 1.07 ± 0.20 fold

## HLGLEEPLQ [compound 105]
[3]
  Fold increase vs DM ± SE: 0.64 ± 0.22 fold

## HLGLEEPLY [compound 103]
[3]
  Fold increase vs DM ± SE: 2.33 ± 0.63 fold

## HLGLEEPMK [compound 111]
[3]
  Fold increase vs DM ± SE: 4.79 ± 1.64 fold

## HLGLEEPNK [compound 99]
[3]
  Fold increase vs DM ± SE: 1.46 ± 0.80 fold

## HLGLEEPPK [compound 37]
[2]
  Fold increase vs SEQ ID NO: 10 ± SE: 1.19 ± 0.2 fold

## HLGLEEPR [compound 112]
[7]
  Fold increase vs DM ± SE: 5.84 ± 1.01 fold

## HLGLEEPSF [compound 100]
[3]
  Fold increase vs DM ± SE: 6.76 ± 1.32 fold

## HLGLEEPSK [compound 38]
[2]
  Fold increase vs SEQ ID NO: 10 ± SE: 2.01 ± 0.14 fold

## HLGLEEPSV [compound 101]
[3]
  Fold increase vs DM ± SE: 6.32 ± 1.27 fold

## HLGLEEPVM [compound 109]
[3]
  Fold increase vs DM ± SE: 6.54 ± 0.57 fold

## HLGLEEPVN [compound 110]
[3]
  Fold increase vs DM ± SE: 2.49 ± 0.93 fold

## HLGLEEPYK [compound 97]
[3]
  Fold increase vs DM ± SE: 6.62 ± 1.92 fold

## HLGLEERKK [compound 31]
[2]
  Fold increase vs SEQ ID NO: 10 ± SE: 0.62 fold

## HLGLEESKK [compound 34]
[2]
  Fold increase vs SEQ ID NO: 10 ± SE: 1.06 fold

## HLGLEFPKK [compound 27]
[2]
  Fold increase vs SEQ ID NO: 10 ± SE: 1.58 ± 0.05 fold

## HLGLEIPKK [compound 28]
[2]
  Fold increase vs SEQ ID NO: 10 ± SE: 1.42 ± 0.13 fold

## HLGLEPPKK [compound 29]
[2]
  Fold increase vs SEQ ID NO: 10 ± SE: 1.95 ± 0.15 fold

## HLGLERPKK [compound 26]
[2]
  Fold increase vs SEQ ID NO: 10 ± SE: 1.11 fold

## HLGLESPKK [compound 30]
[2]
  Fold increase vs SEQ ID NO: 10 ± SE: 1.40 ± 0.32 fold

## HLGSEEPKK [compound 96]
[1]
  Fold increase vs DM ± SE: 3.15 ± 1.82 fold

## HLKLEEPKK [compound 95]
[1]
  Fold increase vs DM ± SE: 2.65 ± 0.72 fold

## HLPLEEPKK [compound 91]
[1]
  Fold increase vs DM ± SE: 3.75 ± 1.60 fold

## HTGLEEPKK [compound 94]
[1]
  Fold increase vs DM ± SE: 3.01 ± 1.06 fold

## HVGLEEPKK [compound 90]
[1]
  Fold increase vs DM ± SE: 2.40 ± 1.03 fold

## KHHLGLEEPKK [SEQ ID NO: 6, KHHLGLEEPKK]
  biological activity in the in vitro osteoblast differentiation assay (in words): biologically active

## KHHLGLEEPKKL [SEQ ID NO: 5, KHHLGLEEPKKL]
  biological activity in the in vitro osteoblast differentiation assay (in words): biologically active

## KHHLGLEEPKKLR [compound 1]
Table 17, PEGylated fragments, 2 μg/mL, 18-21 day interval
  Fold increase vs DM ± SE: 1 fold

## KLGLEEPKK [compound 89]
[1]
  Fold increase vs DM ± SE: 3.56 ± 1.91 fold

## LGLEEP [SEQ ID NO: 15, LGLEEP]
  Fold increase vs DM ± SD: 1.29 ± 0.23 fold

## LGLEEPK [SEQ ID NO: 13, LGLEEPK]
  Fold increase vs DM ± SD: 1.83 ± 0.52 fold
  biological activity in the in vitro osteoblast differentiation assay (in words): biologically active

## LGLEEPKK [SEQ ID NO: 11, LGLEEPKK]
  Fold increase vs DM ± SD: 2.93 ± 0.54 fold
  biological activity in the in vitro osteoblast differentiation assay (in words): biologically active

## LGLEEPKKLR [SEQ ID NO: 4, LGLEEPKKLR]
  biological activity in the in vitro osteoblast differentiation assay (in words): some preserved biological activity

## NLGLEEPKK [compound 93]
[1]
  Fold increase vs DM ± SE: 3.21 ± 1.56 fold
